This is an account of results in PubChem BioAssay AID1745853 (National Center for Advancing Translational Sciences (NCATS), 2022).

The structures appear in SMILES notation. The list shows a part of the results. These are further read-outs of the screen, such as a control signal, another cell line or another target. No call is given for them.

Holding throughout (assay): Primary Screen for Target Class Profiling of Small Molecule Inhibitors of Methyltransferases
For assay [1], the target named is Glycine N-methyltransferase (Homo sapiens) (UniProt Q14749). The conditions noted are these: purified enzyme, MTase-Glo SAH luminescence; measured here: GNMT inhibition; at 40 µM; stronger effect = lower value. The text has this: (§1) PI: Matthew D. Hall Ph.D. and Quinlin M. Hanson Ph.D.
(§2) National Center for Advancing Translational Sciences (NCATS)
(§3) National Institute of Health (NIH), Rockville, MD
(§4) Target class profiling (TCP) is a chemical biology approach amenable to investigating understudied biological targets. TCP is achieved by developing a generalizable assay platform and applying it to screen a curated set of compound libraries against representative members of a target class. Small molecule methyltransferases (SMMTase) are a subclass of methyltransferase that act on metabolites to modulate signaling pathways, metabolize xenobiotics, or balance the available methyl pool. We screened four curated libraries totaling 27,574 unique compounds against the SMMTases nicotinamide N-methyltransferase (NNMT), phenylethanolamine N-methyltransferase (PNMT), histamine N-methyltransferase (HNMT), glycine N-methyltransferase (GNMT), catechol O-methyltransferase (COMT), and guanidinoacetate N-methyltransferase (GAMT). The data generated by this TCP can be leveraged for informed tool molecule development. For example, in the associated publication we identified a chemotype of HNMT-selective inhibitors. Additionally, we identified a putative SMMTase-selective inhibitor with potential as a tool molecule for studying broader methyltransferase biology.
(§5) High-through put screening assays were developed at the National Center for Advancing Translational Science (NCATS) for the enzymes NNMT, PNMT, HNMT, GNMT, COMT, and GAMT. Enzymatic activity was measured as a function of SAM cofactor conversion using the MTase Glo kit (Promega) for all enzymes. All assays were performed in 1536-well format with substrates and SAM concentrations at KM values. Enzyme concentration and assay timing were optimized for 10-20% SAM conversion. Initial screening of 27,574 compounds was done as single-point assays using the highest compound concentration (40 uM). […] These compounds were replated in 11-point dose response and assayed against NNMT, PNMT, HNMT, GNMT, COMT, GAMT, and a counter-assay. The IC50 and efficacy (maximal response) values were determined for each dose-response curve. These values are also accounted for in the area under the curve (AUC) values.
(§6) PROTOCOL TABLE (as described by Inglese J, Shamu CE and Guy RK. 2007)
(§7) SEQUENCE No. (e.g., 1, 2, 3, etc.); […] (e.g., Cells, Incubation, Reagent, etc.); VALUE; DESCRIPTION.
(§8) 1; Reagent; 2 uL; SMMTase Enzyme (2x) in reaction buffer, columns 1- 48.
(§9) 2; Reagent; 1 uL; SAM (4x) in reaction buffer, columns 1-48.
(§10) 3; Controls; 23 nL; DMSO in column 4; sinefungin in DMSO (0 uM - 40 uM) in 7-point 1:2 dilution series (n = 2) in column 2.
(§11) 4; Compounds; 23 nL; Columns 5-48.
(§12) 5; Reagent; 1 uL; Substrate (4x) in reaction buffer, columns 2-48.
(§13) 6; Time; 20-30 min; Incubation.
(§14) 7; Reagent; 1 uL; MTase-Glo reagent (5X), columns 1-48.
(§15) 8; Time; 30 min; Incubation.
(§16) 9; Reagent; 5 uL; MTase-Glo Detection reagent, columns 1-48.
(§17) 10; Time; 30 min; Incubation, luminescence evolution.
(§18) 11; Detection; Luminescence; ViewLux uHTS Microplate Imager (PerkinElmer).
(§19) NOTES (numbers refer to Sequence numbers above)
(§20) 1, 2, 5. White Medium Binding Greiner 1536-well plates (Cat #789175-F, Greiner Bio-One, Monroe, NC); Reaction buffer: 50 mM Tris, pH 8.0, 3 mM MgCl2, 1 mM EDTA, 50 mM NaCl, 1 mM DTT, and 0.1 mg/mL BSA. Evaporation was prevented by covering assay plates with metal lids containing holes to allow gas diffusion.
(§21) 1. Six SMMTase were profiled: HNMT, GNMT, PNMT, COMT, NNMT, GAMT
(§22) 5. The corresponding substrate was used for each enzyme: HNMT - 5.3 uM Histamine; GNMT - >500 uM Glycine; PNMT - 16.2 uM Norephinephrine; COMT - 13.7 uM Norephinephrine; NNMT - 3.8 uM Nicotinamide; GAMT - 2.5 uM Guanidinoacetate.6, 8, 10. Room temperature
(§23) 6. Final reaction conditions: 10 nM COMT, 5 uM SAM, 15 uM norepinephrine, 50 mM Tris, pH 8.0, 3 mM MgCl2, 1 mM EDTA, 50 mM NaCl, 1 mM DTT, and 0.1 mg/mL BSA; refer to tables 2 and S1 for specific timing.
8. […]

Assay [2] addresses Guanidinoacetate N-methyltransferase (Homo sapiens) (UniProt Q14353). The conditions noted are these: purified enzyme, MTase-Glo SAH luminescence; measured here: GAMT inhibition; at 40 µM; stronger effect = lower value.
Description: as §1, §2, §3, §4, §5, §6, §7, §8, §9, §10, §11, §12, §13, §14, §15, §16, §17, §18, §19, §20, §21, §22, §23
8. […]

Assay [3] concerns the target Histamine N-methyltransferase (Homo sapiens) (UniProt P50135). The conditions noted are these: purified enzyme, MTase-Glo SAH luminescence; measured here: HNMT inhibition; at 40 µM; stronger effect = lower value.
Description: as §1, §2, §3, §4, §5, §6, §7, §8, §9, §10, §11, §12, §13, §14, §15, §16, §17, §18, §19, §20, §21, §22, §23
8. […]

Assay [4] deals with Nicotinamide N-methyltransferase (Homo sapiens) (UniProt P40261). Conditions: purified enzyme, MTase-Glo SAH luminescence; measured here: NNMT inhibition; at 40 µM; stronger effect = lower value.
Description: as §1, §2, §3, §4, §5, §6, §7, §8, §9, §10, §11, §12, §13, §14, §15, §16, §17, §18, §19, §20, §21, §22, §23
8. […]

The target of assay [5] is Phenylethanolamine N-methyltransferase (Homo sapiens) (UniProt P11086). The conditions noted are these: purified enzyme, MTase-Glo SAH luminescence; measured here: PNMT inhibition; at 40 µM; stronger effect = lower value.
Description: as §1, §2, §3, §4, §5, §6, §7, §8, §9, §10, §11, §12, §13, §14, §15, §16, §17, §18, §19, §20, §21, §22, §23
8. […]
% is set by controls: 0 for no effect and ±100 for the full control effect.

As for `CCc1nc(NCCOC)ncc1C(=O)O`, the activity change, negative = inhibition is -1.93% in assay [1]; -0.681% in assay [2]; 1.02% in assay [3]; -5.39% in assay [4]; -2.71% in assay [5].
In the case of `CS(=O)(=O)c1ccc(OCC2(CNCc3cccc(C(F)(F)F)c3)C[C@@H](O)[C@@H](O)C2)cc1` (stereo not given in full), the activity change, negative = inhibition in assay [1] is -3.69%; in assay [2] it was -2.15%; in assay [3] it was -0.777%; in assay [4], -7.36%; in assay [5] it was 2.02%.
In the same order, the values of `COC1C(=O)N(c2cccc(F)c2)C12CCN(S(=O)(=O)c1cccs1)CC2` (stereo not given) are -8.54%, -4.61%, -3.16%, -13.1% and -2.12%.
In the same order, the values of `Cc1ccc2[nH]c(=O)c(CCC(=O)NCc3ccco3)cc2c1` are -17.6%, 1.15%, 1.92%, -5.31% and -11.3%.
On to `C=C(C)[C@@]1(O)C[C@@]2(C)C(=CC1=O)CC[C@@H](O)[C@@H]2C`, for which the activity change, negative = inhibition in assay [1] is 0%; in assay [2], 3.52%; in assay [3], 3.72%; in assay [4], -9.15%; in assay [5] it was 5.42%.
In the same order, the values of `COc1ccc(OCC(O)CN2CCC(=O)N(CC3CC3)Cc3cc(OC)ccc32)cc1` (stereo not given) are -4.44%, 1.08%, -0.247%, -13.2% and -1.25%.
Take `CCN1C(=O)CCc2cc(NS(=O)(=O)c3cn(C)c(C)n3)ccc21`: the activity change, negative = inhibition in assay [1] is -2.35%; in assay [2], 1.09%; in assay [3] it was -3.1%; in assay [4] it was -0.419%; in assay [5], -1.39%.
As for `CCOCCCN1C(=O)c2ccc(-c3ccco3)n2CC1(C)C(=O)NC1CCCC1` (stereo not given), the activity change, negative = inhibition was -2.3% in assay [1]; 4.62% in assay [2]; 2.27% in assay [3]; 6.63% in assay [4]; -0.16% in assay [5].
As to `CCCCCOc1ccc2c(-c3ccccc3)cc(=O)oc2c1`, the activity change, negative = inhibition in assay [1] was -5.71%; in assay [2] it was 0%; in assay [3], 0.207%; in assay [4], 0.395%; in assay [5], -8.35%.
For `Cc1cc(C)cc(C(=O)NOCCCCCC(=O)NO)c1`, the activity change, negative = inhibition in assay [1] is 0.463%; in assay [2], 5.12%; in assay [3] it was 9.05%; in assay [4], -6.15%; in assay [5] it was 5.29%.
In the same order, the values of `CN1C(=O)c2cc(C(=O)NCCc3ccco3)nn2CC1(C)C(=O)NCc1ccccc1` (stereo not given) are 2.19%, 0%, 0.993%, 8.34% and 2.5%.
In the case of `CCCN1C(=O)c2cc(C(=O)NCc3ccco3)nn2CC1(C)C(=O)NC1CCCC1` (stereo not given), the activity change, negative = inhibition in assay [1] was found to be 5.85%; in assay [2] it was 0.557%; in assay [3] it was 3.66%; in assay [4] it was 4.98%; in assay [5] it was 2.22%.
For `CCC(C(=O)N1CCc2onc(-c3ccc(F)c(F)c3)c2C1)n1cccn1` (stereo not given), the activity change, negative = inhibition in assay [1] is -0.483%; in assay [2], 0.312%; in assay [3] it was 2.37%; in assay [4] it was -6.67%; in assay [5] it was 3.69%.
On the same counts, the results for `CCOc1ccc(CN2C(=O)c3ccc(-c4ccco4)n3CC2(C)C(=O)NC2CCCCC2C)cc1` (stereo not given) are -8.31%, 0%, 0.936%, -17% and -1.25%.
In the same order, the values of `CCn1nc(C(=O)O)c(=O)c2cc3c(cc21)OCO3` are -7.58%, 2.46%, -1.94%, -4.4% and 7.26%.
On the same counts, the results for `CN(Cc1ccc(-n2cccn2)cc1)Cc1nc(Cc2cccc(F)c2)no1` are -1.98%, 0.24%, 1.69%, -0.601% and -4.03%.
